Assay results taken from PubChem BioAssay AID504333 (National Center for Advancing Translational Sciences (NCATS), 2011).
Screen size: about 360,000 compounds; about 16,000 (4.4%) were called active. The inconclusive results got no clear call from the source; some entries with a clear call stand among them for comparison. Calls come from the whole dose curve; as a rule, active = well fitted inhibition curve with a large enough effect; inconclusive = small, poorly fitted or top-dose-only effect; inactive = no such curve, though single readings can be large or run the other way. Where the call is inconclusive, the potency comes from a doubtful curve fit.

Biological target: Bromodomain adjacent to zinc finger domain protein 2B (Homo sapiens) (UniProt Q9UIF8)
Sequence of UniProt Q9UIF8 (Q9UIF8 whole entry, looked up, the tested form may be a part): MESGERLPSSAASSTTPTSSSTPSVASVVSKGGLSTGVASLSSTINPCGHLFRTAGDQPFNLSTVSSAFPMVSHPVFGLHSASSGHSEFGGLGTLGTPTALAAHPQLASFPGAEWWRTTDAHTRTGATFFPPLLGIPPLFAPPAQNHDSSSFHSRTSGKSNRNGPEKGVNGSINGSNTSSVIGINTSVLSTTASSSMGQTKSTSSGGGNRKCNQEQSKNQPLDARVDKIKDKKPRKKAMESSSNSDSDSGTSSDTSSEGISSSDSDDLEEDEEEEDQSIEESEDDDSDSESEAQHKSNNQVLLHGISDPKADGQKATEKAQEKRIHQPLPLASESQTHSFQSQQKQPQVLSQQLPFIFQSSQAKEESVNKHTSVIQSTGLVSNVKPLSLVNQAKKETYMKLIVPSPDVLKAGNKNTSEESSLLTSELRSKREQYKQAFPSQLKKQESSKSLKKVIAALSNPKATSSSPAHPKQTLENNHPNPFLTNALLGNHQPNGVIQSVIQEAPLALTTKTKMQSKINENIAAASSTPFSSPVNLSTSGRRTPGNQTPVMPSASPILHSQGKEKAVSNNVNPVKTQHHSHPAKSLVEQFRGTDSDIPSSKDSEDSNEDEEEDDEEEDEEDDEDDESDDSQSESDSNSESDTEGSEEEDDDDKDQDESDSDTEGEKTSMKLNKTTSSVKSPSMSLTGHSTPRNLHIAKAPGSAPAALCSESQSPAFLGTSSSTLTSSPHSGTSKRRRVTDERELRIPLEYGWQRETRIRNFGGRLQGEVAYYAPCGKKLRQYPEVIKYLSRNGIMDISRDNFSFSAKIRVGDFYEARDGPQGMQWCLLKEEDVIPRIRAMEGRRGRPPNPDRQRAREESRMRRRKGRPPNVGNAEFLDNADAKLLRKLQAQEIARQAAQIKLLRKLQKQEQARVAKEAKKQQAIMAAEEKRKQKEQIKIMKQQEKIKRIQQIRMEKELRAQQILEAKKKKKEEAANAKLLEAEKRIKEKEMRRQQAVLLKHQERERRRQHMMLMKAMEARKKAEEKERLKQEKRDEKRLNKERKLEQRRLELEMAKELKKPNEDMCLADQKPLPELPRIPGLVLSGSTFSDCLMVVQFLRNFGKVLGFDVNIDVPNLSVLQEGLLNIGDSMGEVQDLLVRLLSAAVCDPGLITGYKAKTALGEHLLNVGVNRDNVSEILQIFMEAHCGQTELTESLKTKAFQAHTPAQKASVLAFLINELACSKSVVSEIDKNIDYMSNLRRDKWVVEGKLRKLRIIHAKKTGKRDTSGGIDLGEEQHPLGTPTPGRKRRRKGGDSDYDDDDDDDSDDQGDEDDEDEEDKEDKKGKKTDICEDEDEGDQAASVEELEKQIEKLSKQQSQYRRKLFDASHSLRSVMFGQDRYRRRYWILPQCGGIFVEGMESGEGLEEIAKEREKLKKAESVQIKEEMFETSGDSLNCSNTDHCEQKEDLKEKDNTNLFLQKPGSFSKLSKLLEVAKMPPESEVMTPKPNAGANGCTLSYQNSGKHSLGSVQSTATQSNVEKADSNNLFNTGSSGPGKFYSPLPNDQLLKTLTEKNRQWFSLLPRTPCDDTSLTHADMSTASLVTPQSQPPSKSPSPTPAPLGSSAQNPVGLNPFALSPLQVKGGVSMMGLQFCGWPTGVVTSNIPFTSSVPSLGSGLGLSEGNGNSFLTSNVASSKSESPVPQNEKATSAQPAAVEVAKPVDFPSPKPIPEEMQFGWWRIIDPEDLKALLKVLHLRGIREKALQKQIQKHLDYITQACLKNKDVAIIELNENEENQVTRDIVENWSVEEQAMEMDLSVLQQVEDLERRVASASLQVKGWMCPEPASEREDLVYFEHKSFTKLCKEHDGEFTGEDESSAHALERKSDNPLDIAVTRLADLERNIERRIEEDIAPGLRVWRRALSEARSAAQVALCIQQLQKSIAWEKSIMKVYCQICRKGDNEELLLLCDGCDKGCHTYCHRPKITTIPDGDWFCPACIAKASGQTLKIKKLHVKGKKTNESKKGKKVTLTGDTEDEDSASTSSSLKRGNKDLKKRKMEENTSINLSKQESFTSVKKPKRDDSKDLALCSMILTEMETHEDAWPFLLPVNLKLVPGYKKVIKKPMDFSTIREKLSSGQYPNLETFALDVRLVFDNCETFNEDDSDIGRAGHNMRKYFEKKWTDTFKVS
Experiment: qHTS Assay for Inhibitors of BAZ2B; note: nearly all actives have a fitted effect of over 60% in size
Details: AlphaScreen BAZ2B-H3K14Ac peptide displacement; activity change, negative = inhibition: at 114 µM (top of the series)
In short: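 AlphaScreen displacement: compounds (up to 110uM) incubated 30 min at room temperature with a preformed 50 nM BAZ2B/50 nM biotinylated H3K14Ac peptide complex in PBS pH 7.4 with Tween-20. Donor and acceptor beads at 10 ug/mL final added, 20 min light-protected before reading.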
% is set by controls: 0 for no effect and ±100 for the full control effect; potency is the fitted concentration of half-maximal effect; tags give direction and shape of the fitted curve.

SMILES | Potency | activity change, negative = inhibition
CCN(Cc1ccccc1)c1ccc(N=Nc2nn(C)c(C)c2[N+](=O)[O-])cc1 | active: 8.91 µM | –
CN(C)CCCN1c2ccccc2Sc2ccccc21 | inconclusive: 39.8 µM [inhibitor, single point] | –
CC(C)c1ccc(NC(=O)C2CCCN(S(=O)(=O)c3ccc4[nH]c(=O)ccc4c3)C2)cc1 (stereo not drawn) | – | inactive: -3.09%
COc1ccc(C2(C)CC(C)(C)Nc3ccccc32)cc1 (stereo not drawn) | inconclusive: 50.1 µM [inhibitor, partial curve] | –
Clc1ccc(Nc2ccccc2)nn1 | – | inactive: 2%
Cc1cc(N/N=C/c2cccc(Cl)c2)nc(NCc2ccccc2)n1 | inconclusive: 70.8 µM [inhibitor, single point] | –
COc1ccc(NC(=O)c2c[nH]n3c(=O)cc(C4CCN(C(=O)OC(C)(C)C)CC4)nc23)cc1Cl | inconclusive: 89.1 µM [inhibitor, single point] | –
Cn1c(SCC(=O)c2ccccc2)nnc1-c1ccncc1 | – | inactive: 1.72%
CCC(=O)Nc1ccc(-c2csc(C)n2)cc1 | – | inactive: 1.41%
O=C(NC(=S)Nc1ccc(N2CCOCC2)cc1)c1cccs1 | inconclusive: 39.8 µM [inhibitor, partial curve] | –
COc1ccc(N2C(=O)[C@@H]3[C@H](C2=O)[C@H]2c4ccccc4C=CN2[C@@H]3C(C)=O)cc1 | inconclusive: 70.8 µM [inhibitor, single point] | –
CCc1ccc2occ(CC(=O)Nc3sc4c(c3C(=O)OC)CCC4)c2c1 | inconclusive: 12.6 µM [inhibitor, full curve] | –
O=C(NC(=S)NCc1cccnc1)c1ccccc1[N+](=O)[O-] | – | inactive: -0.742%
CC1C=CC(C)C(C(=O)O)C1C(=O)O (stereo not drawn) | active: 50.1 µM | –
Cc1ccc(SCc2cc(=O)n3[nH]c(C)nc3n2)cc1 | inconclusive: 89.1 µM [inhibitor, single point] | –
N#C/C(=C\c1ccc(-c2ccc([N+](=O)[O-])cc2Br)o1)C(=O)N1CCN(c2ccccc2)CC1 | inconclusive: 6.31 µM [inhibitor, full curve] | –
Oc1ccc(N=Nc2n[nH]c(-c3ccccc3)n2)cc1 | inconclusive: 79.4 µM [inhibitor, single point] | –
Oc1c(N=NC(=S)Nc2ccccc2F)c2ccccc2n1Cc1ccc(F)cc1 | inconclusive: 7.08 µM [inhibitor, full curve] | –
COc1ccccc1NS(=O)(=O)c1cccc(C(=O)NN=C2CCCC2)c1 | – | inactive: -11.7%
O=C(O)Cc1sc(NC2CCCCC2)nc1-c1ccc(Cl)cc1 | inconclusive: 89.1 µM [inhibitor, single point] | –
COc1cc(C(=O)NCC(=O)N/N=C/c2ccccn2)cc(OC)c1OC | – | inactive: -3%
CCOc1ccc(S(=O)(=O)NCC(c2ccc(N(C)C)cc2)N2CCc3ccccc32)cc1 (stereo not drawn) | active: 6.31 µM | –
C=CCn1c(C)cc(C(=O)COC(=O)CNC(=O)c2ccccc2)c1C | inconclusive: 89.1 µM [inhibitor, single point] | –
O=C(c1cccs1)N(Cc1ccccn1)Cc1ccco1 | inconclusive: 79.4 µM [inhibitor, single point] | –
COc1cccc(C(=O)NCCS(=O)(=O)N2CCCCCC2)c1 | – | inactive: -3.05%

SMILES | Potency | activity change, negative = inhibition
Cc1sc2nc(-c3ccccn3)[nH]c(=O)c2c1-c1ccccc1 | – | inactive: -3.37%
COc1cccc(Nc2nnc(SCC(=O)Nc3sccc3C(N)=O)s2)c1 | active: 79.4 µM | –
Cc1cnc(NC(=O)COc2ccccc2Cl)s1 | – | inactive: 1.19%
COc1ccc(C(=O)NCC(=O)N=Nc2c(O)n(Cc3ccccc3)c3ccccc23)cc1OC | inconclusive: 31.6 µM [inhibitor, full curve, poor fit] | –
CCOc1ccc(NC(=O)CC2C(=O)N(c3ccc(C)cc3)C(=O)N2Cc2ccc(OC)cc2)cc1 (stereo not drawn) | inconclusive: 79.4 µM [inhibitor, single point] | –
O=C(O)c1cc(NN=Nc2cccc([N+](=O)[O-])c2)cc([N+](=O)[O-])c1 | inconclusive: 79.4 µM [inhibitor, single point] | –
Cc1cc2nc(/N=C(\N)NC(=O)N3c4ccccc4Sc4ccccc43)nc(C)c2cc1C | – | inactive: -35.3%
COC(=O)c1ccc(CN2CCN(CC=C(C)C)C(CCO)C2)cc1 (stereo not drawn) | inconclusive: 79.4 µM [inhibitor, single point] | –
Cc1cccc(NS(=O)(=O)c2ccc(C)c(NS(=O)(=O)c3cccs3)c2)c1 | – | inactive: -37.5%
CCOC(=O)CC1=C(C(=O)OCC)C(c2ccc(OC)c(OC)c2)C(C#N)=C(N)O1 (stereo not drawn) | – | inactive: -2.77%
O=C(N/N=C/c1ccc[nH]1)c1sc2ccccc2c1Cl | inconclusive: 39.8 µM [inhibitor, partial curve] | –
COc1cc(Cl)ccc1NC(=S)N(CCCN1CCOCC1)Cc1cn(C)c2ccccc12 | inconclusive: 31.6 µM [inhibitor, full curve] | –
CC1CCc2c(sc(NC(=O)c3ccc(-c4ccccc4[N+](=O)[O-])o3)c2C#N)C1 (stereo not drawn) | inconclusive: 79.4 µM [inhibitor, single point] | –
CC(NCc1cccn1C)c1ccccc1 (stereo not drawn) | inconclusive: 100 µM [inhibitor, single point] | –
CCOc1ccc(Nc2nc(Cc3nnc(SCC(=O)c4ccc(C)c(C)c4)o3)cs2)cc1 | inconclusive: 39.8 µM [inhibitor, partial curve] | –
COc1ccccc1N1CCN(C(=O)c2cc3c(C)nc4ccccc4c3o2)CC1 | inconclusive: 50.1 µM [inhibitor, partial curve] | –
COc1cc([N+](=O)[O-])ccc1NC(=O)CCCOc1cccc(C)c1 | inconclusive: 79.4 µM [inhibitor, single point] | –
Cc1ccc(S(=O)(=O)n2nc(OC(=O)c3c(-c4ccccc4Cl)noc3C)cc2N)cc1 | inconclusive: 89.1 µM [inhibitor, single point] | –
CC1(C)Cc2c(C#N)c(N)n(-c3ccccc3)c(=S)c2CO1 | – | inactive: -4.88%
CC(OC(=O)CCC1CCCC1)C(=O)Nc1ccccc1[N+](=O)[O-] (stereo not drawn) | inconclusive: 10 µM [inhibitor, full curve] | –
CCN(CC)CCCOc1ccc(C)cc1Br | active: 79.4 µM | –
COCCNC(=O)c1ccc(N2CCCCC2)c(NS(=O)(=O)c2ccc(C)cc2)c1 | – | inactive: 1.82%
CCC(C)n1cnc2c(=O)oc3ccccc3c21 (stereo not drawn) | inconclusive: 11.2 µM [inhibitor, single point] | –
CCOC(=O)c1ccc(NC(=O)c2c(NCc3cc(OC)c(OC)cc3OC)sc3c2CCCC3)cc1 | active: 25.1 µM | –
CN(C)c1ccc(-c2nnn(Cc3ccccc3Br)n2)cc1 | inconclusive: 44.7 µM [inhibitor, partial curve] | –

SMILES | Potency | activity change, negative = inhibition
O=C(NCCN1CCOCC1)c1ccc([N+](=O)[O-])cc1[N+](=O)[O-] | – | inactive: 14.2%
COc1ccc(/C=C/C(=O)NCCSCc2ccco2)cc1OC | inconclusive: 79.4 µM [inhibitor, partial curve] | –
CC(=O)c1c(C)nc(-c2ccc(Cl)cc2)nc1N | active: 79.4 µM | –
CC1=CC(=O)C=C/C1=C(/c1ccc(O)cc1C)c1ccccc1S(=O)(=O)O | inconclusive: 89.1 µM [inhibitor, single point] | –
CCc1ccccc1N1CC(C(=O)Nc2cc(C)on2)CC1=O (stereo not drawn) | – | inactive: 0.0693%
CN(CC(=O)Nc1c(Cl)cccc1Cl)C(=O)CCc1nc2sc3c(c2c(=O)[nH]1)CCCC3 | inconclusive: 89.1 µM [inhibitor, single point] | –
O=C(NCCc1nc2ccccc2[nH]1)C1CCC(=O)N(CCc2cccc(F)c2)C1 (stereo not drawn) | – | inactive: -1.51%
CCNc1nc(NCC)nc(C(=O)OCCO)n1 | active: 25.1 µM | –
c1ccc2c(CN3CCSCC3)cccc2c1 | inconclusive: 89.1 µM [inhibitor, single point] | –
O=C1/C(=C\c2ccccc2)SC(=S)N1CCC(=O)N1CCCCC1CCO (stereo not drawn) | inconclusive: 25.1 µM [inhibitor, partial curve] | –
O=C(CSc1nnc(-c2ccccn2)n1-c1ccc(Cl)cc1)Nc1ccc2c(c1)OCO2 | inconclusive: 89.1 µM [inhibitor, single point] | –
CCc1ccc2nc3c(c(C(=O)O)c2c1)CCC3 | inconclusive: 89.1 µM [inhibitor, single point] | –
CCOc1cccc(/C=C/C(=O)O)c1 | – | inactive: 5.58%
COc1ccc(S(=O)(=O)N2CCC(C(=O)NC3CC3)CC2)cc1Cl | – | inactive: -3.53%
CC(C)(C)C1CCc2c(sc(NC(=O)c3ccncc3)c2C(N)=O)C1 (stereo not drawn) | – | inactive: 3.93%
Cc1c(Cl)cnc(NC(=O)CSc2nncs2)c1Cl | – | inactive: -7.11%
N#CC1=C(N)Oc2cc(N)ccc2C1c1cccc(Br)c1 (stereo not drawn) | inconclusive: 25.1 µM [inhibitor, full curve, poor fit] | –
Cc1ccn2c(Nc3ccccc3C)c(-c3ccccc3)nc2c1 | inconclusive: 3.55 µM [inhibitor, full curve] | –
COc1ccc(CCNc2ncnc3c2oc2ccccc23)cc1OC | inconclusive: 89.1 µM [inhibitor, single point] | –
CCOC(=O)c1cc(-c2ccccc2)n(CCC(=O)NCCc2ccc(OC)c(OC)c2)c1C | inconclusive: 50.1 µM [inhibitor, partial curve] | –
COc1ccccc1-c1cc(C(=O)N/N=C/C=C/c2ccccc2[N+](=O)[O-])c2ccccc2n1 | inconclusive: 8.91 µM [inhibitor, full curve, poor fit] | –
O=C(COC(=O)[C@H](Cc1c[nH]c2ccccc12)NC(=O)c1cccs1)NCc1ccccc1 | inconclusive: 44.7 µM [inhibitor, partial curve] | –
CCN(CCNC(=O)CN(C)S(=O)(=O)c1cccc2nsnc12)c1ccccc1 | inconclusive: 79.4 µM [inhibitor, single point] | –
